# Assay results taken from the antibiotic and cytotoxicity screens of Wong et al. (2023).
# The other results are listed elsewhere or left out.
# How the values were obtained:
# HSkMC = human skeletal muscle cells; test: cytotoxicity call (relative viability < 0.9); conditions: 10 µM
# HepG2 = test: cytotoxicity call (relative viability < 0.9); conditions: 10 µM
# S. aureus RN4220 = test: growth inhibition call (relative growth <= 0.2); conditions: 50 µM
Compound,cytotoxicity call (HSkMC),cytotoxicity call (HepG2),growth inhibition call (S. aureus RN4220)
Cc1cc(Oc2ccnc3cc(Cl)ccc23)ccc1Cl,inactive,inactive,inactive
C[C@@H]1CN([C@@H](C)CO)C(=O)c2cc(NS(=O)(=O)c3cccs3)ccc2O[C@H]1CN(C)S(=O)(=O)c1ccc(F)cc1,inactive,inactive,inactive
C[C@H]1CN([C@@H](C)CO)C(=O)c2cc(NC(=O)Nc3ccc(C(F)(F)F)cc3)ccc2O[C@@H]1CN(C)Cc1ccc(Cl)c(Cl)c1,inactive,inactive,inactive
O=C(CCCCCCC(=O)N/N=C/[C@H](O)[C@@H](O)[C@H](O)[C@H](O)CO[C@H]1O[C@H](CO)[C@H](O)[C@H](O)[C@H]1O)NO,inactive,inactive,inactive
C[C@@H]1CN([C@@H](C)CO)S(=O)(=O)c2ccc(C#CC3(O)CCCC3)cc2O[C@@H]1CN(C)C(=O)Cc1ccccc1,inactive,inactive,inactive
NCCC(O)C(=O)NC1CC(N)C(OC2OC(CN)C(O)C(O)C2O)C(O)C1OC1OC(CO)C(O)C(N)C1O.O (stereo not drawn),inactive,inactive,inactive
C[C@@H]1CN([C@@H](C)CO)C(=O)c2cc(NC(=O)Nc3cccc4ccccc34)ccc2O[C@@H](C)CCCCO[C@H]1CN(C)C(=O)NC1CCCCC1,inactive,inactive,inactive
Cc1ncc(NC(=O)c2cccc(C(F)(F)F)c2)cc1-c1cnc(OC2CCOCC2)c(N2CCOCC2)c1,inactive,inactive,inactive
Cc1ccc(S(=O)(=O)N(C)C[C@@H]2Oc3ncc(C#CCN(C)C)cc3C(=O)N([C@H](C)CO)C[C@@H]2C)cc1,inactive,inactive,inactive
O=C(C[C@H]1C=C[C@@H](NC(=O)CN2CCOCC2)[C@@H](CO)O1)NCc1cccc(F)c1,inactive,inactive,inactive
COc1ccc(C#Cc2cnc3c(c2)C(=O)N([C@H](C)CO)C[C@H](C)[C@H](CN(C)S(=O)(=O)c2ccc(C)cc2)O3)cc1OC,inactive,inactive,inactive
CCC(CC)C(=O)N[C@@H]1CC(=O)N(C)C1,inactive,inactive,inactive
C[C@@H]1CN([C@@H](C)CO)C(=O)c2cccc(NC(=O)c3ccc(-c4nccs4)cc3)c2O[C@H]1CN(C)Cc1ccc(Oc2ccccc2)cc1,inactive,inactive,inactive
C[C@@H]1CCCCO[C@H](CN(C)S(=O)(=O)c2ccccc2)[C@@H](C)CN([C@@H](C)CO)C(=O)c2cc(NC(=O)Nc3ccc4c(c3)OCO4)ccc2O1,inactive,inactive,inactive
Cc1noc(C)c1S(=O)(=O)Nc1ccc2c(c1)C(=O)N([C@@H](C)CO)C[C@@H](C)[C@@H](CN(C)C)OCCCC[C@H](C)O2,inactive,inactive,inactive
C[C@H]1CN([C@@H](C)CO)C(=O)c2cccc(NC(=O)c3ccc(-c4nccs4)cc3)c2O[C@H]1CN(C)C(=O)Nc1ccccc1,inactive,inactive,inactive
COc1ccc(NC(=O)Nc2ccc3c(c2)C(=O)N([C@H](C)CO)C[C@H](C)[C@@H](CN(C)C(=O)Nc2ccc(C(F)(F)F)cc2)OCCCC[C@H](C)O3)cc1,inactive,inactive,inactive
C[C@@H]1CC=CC[C@H](c2ccc3c(c2)OCO3)NC(=O)[C@@H](Cc2ccccc2)N(C)C(=O)c2ccccc2O1,inactive,active,inactive
C[C@@H]1CN([C@@H](C)CO)C(=O)CCCn2cc(nn2)CO[C@H]1CN(C)C(=O)Nc1cccc(Oc2ccccn2)c1,inactive,inactive,inactive
CC1(C)OC2CC(=O)OCC23C1CC(=O)C1(C)C3CCC2(C)C(c3ccoc3)OC(=O)C3OC321 (stereo not drawn),inactive,inactive,inactive
CC(=O)N1CCN(c2ccnc3c2c(=O)n(CC(=O)NC(C)(C)C)c(=O)n3C)CC1,inactive,inactive,inactive
O=C(O)CCCCCCCC(O)C(O)CCCCCCO (stereo not drawn),inactive,inactive,inactive
Cn1cnc2c1c(=O)[nH]c(=O)n2C,inactive,inactive,inactive
COc1ccc(CN(C)C[C@H]2Oc3ccc(NS(=O)(=O)c4cn(C)cn4)cc3CC(=O)N([C@@H](C)CO)C[C@@H]2C)cc1,inactive,inactive,inactive
COc1ccc(S(=O)(=O)N(C)C[C@H]2Oc3c(NC(=O)NC(C)C)cccc3C(=O)N([C@H](C)CO)C[C@H]2C)cc1,inactive,inactive,inactive
C[C@@H]1COS(=O)(=O)N1,inactive,inactive,inactive
